Experimental data as given in the supplement of paper PMC5919970.
Values joined by “and” are separate entries in the source; they are usually repeats but may differ in a detail not shown here. Equal values may be shown once. Where a name gives a salt, the structure may show the parent alone. Whole data set: some 2,000 compounds, median “fractional viability relative to vehicle” near 0.92, cut for the lowest 2% near 0.11. This is one part of the list.

Tested on: TYKNU
Experiment: fractional viability relative to vehicle; TYKNU is a high-grade serous ovarian cancer line; higher = less growth inhibition
Conditions: 72 h, genotype: OPA1 knockout (sgOPA1 #2)
Outline: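 TYKNU control cells or lentiCRISPRv2 knockout derivatives were seeded at 500 cells per well into drug-stamped 384-well plates holding a ~2100-compound library at 2 or 10 μM, in duplicate. Cells were grown at 37 °C in 5% CO2 in RPMI 1640 with 10% FBS, and drug treatment lasted 72 h. Viability was read by Cell Titer Glo luminescence. Duplicate treatment wells were averaged and normalised to duplicate control wells from the same plate position.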

Row | SMILES | fractional viability (2uM) | fractional viability (10uM)
1 | Cc1ccccc1C(OCCN(C)C)c1ccccc1 (centres undefined) [Orphenadrine Citrate] | 0.981 | 1.02
2 | O=C1CCc2ccc(OCCCCN3CCN(c4cccc(Cl)c4Cl)CC3)cc2N1 [Aripiprazole] | 1.04 | 0.759
3 | CCCCCCCCCCCC1=C(O)C(=O)C=C(O)C1=O [Embelin] | 1.12 | 0.812
4 | COc1c2ccoc2cc2oc(=O)ccc12 [Bergapten] | 0.927 | 0.906
5 | CCc1ccc(OCc2ccccc2C(=O)Nc2ccc3nc(C)cc(N)c3c2)cc1 | 0.16 | 0.0251
6 | CN(C)CCc1c[nH]c2ccc(CS(=O)(=O)N3CCCC3)cc12 [Almotriptan Malate] | 0.967 | 1.11
7 | Cn1nc(C(C)(C)C)cc1C(=O)N[C@@H](Cc1cccc(Cl)c1)C(=O)NCC#N [Cathepsin Inhibitor 1] | 0.947 | 0.991
8 | CN(c1ncccc1CNc1nc(Nc2ccc3c(c2)CC(=O)N3)ncc1C(F)(F)F)S(C)(=O)=O | 0.837 and 0.713 and 0.812 | 0.605 and 0.474 and 0.584
9 | O=C(Nc1ccccc1)N1CCN(c2nc(-c3ccccc3)ns2)CC1 | 0.909 | 1.02
10 | Clc1cccc(CN=C2Nc3ccccc3NC23CCNCC3)c1 [Liproxstatin-1] | 0.816 | 0.729
11 | CC(CNC(=O)c1cccnc1)NC(=O)c1cccnc1 (centres undefined) [Nicaraven] | 0.886 | 0.93
12 | CN1CCCN(C(=O)c2cccc(-c3ccc(/C=C4/C(=O)Nc5ccc(Cl)cc54)o3)c2)CC1 | 0.132 | 0.0251
13 | CCCCCCCCOc1ccccc1C(=O)Nc1ccc(C(=O)OCC[N+](C)(CC)CC)cc1 [Otilonium Bromide] | 0.988 | 0.817
14 | CN1CCN2c3ccccc3Cc3ccccc3C2C1 (centres undefined) [Mianserin HCl] | 1.26 | 1
15 | CCCCc1ncc(/C=C(\Cc2cccs2)C(=O)O)n1Cc1ccc(C(=O)O)cc1 [Eprosartan Mesylate] | 0.994 | 0.884
16 | CCOC(=O)C1=C(C)NC(C)=C(C(=O)OC)C1c1cccc(Cl)c1Cl (centres undefined) [Felodipine] | 1.04 | 0.865
17 | CN1CCN(Cc2ccc(-c3cnc4[nH]cc(-c5ccc6[nH]ccc6c5)c4c3)cc2)CC1 | 0.872 | 1.1
18 | CC1(C)CC[C@]2(NC(=O)C(C)(F)F)CC[C@]3(C)[C@H](C(=O)C=C4[C@@]5(C)C=C(C#N)C(=O)C(C)(C)[C@@H]5CC[C@]43C)[C@@H]2C1 [Omaveloxolone (RTA-408)] | 0.166 | 0.0407
19 | CCOC(=O)c1ccc(NC2CCCCC2)c(N)c1 [Ferrostatin-1 (Fer-1)] | 1.03 | 0.934
20 | O=C1c2c(O)ccc(O)c2C(=O)c2c(NCCNCCO)ccc(NCCNCCO)c21 [Mitoxantrone HCl] | 0.239 | 0.185
21 | O=C1c2c(O)ccc(O)c2C(=O)c2c(NCCNCCO)ccc(NCCNCCO)c21 [Mitoxantrone] | 0.223 | 0.317
22 | COc1ccc2[nH]cc(/C=C3\C(=O)Nc4ccc(NC(=O)CCN5CCCCC5)cc43)c2c1 | 0.938 | 0.924
23 | O=C(NC(Cc1cc(=O)[nH]c2ccccc12)C(=O)O)c1ccc(Cl)cc1 (centres undefined) [Rebamipide] | 1.11 | 1.01
24 | CC(C)c1cc(C(C)C)c(CC(=O)NS(=O)(=O)Oc2c(C(C)C)cccc2C(C)C)c(C(C)C)c1 [Avasimibe] | 0.949 | 0.805

Row | SMILES | fractional viability (2uM) | fractional viability (10uM)
25 | O=C(NNc1nc2cc(F)ccc2n2cccc12)c1cnccn1 | 0.576 | 0.643
26 | COC(=O)/C=C/C(=O)OC [Dimethyl Fumarate] | 1.19 | 0.852
27 | OCC(CO)N[C@H]1C[C@](O)(CO)[C@@H](O)[C@H](O)[C@H]1O [Voglibose] | 0.882 | 0.955
28 | CCc1ccc(/C=C2/SC(=S)NC2=O)cc1 | 0.944 | 0.918
29 | Cc1ccc(Nc2nccc(N(C)c3ccc4c(C)n(C)nc4c3)n2)cc1S(N)(=O)=O [Pazopanib] | 1.14 | 0.605
30 | CCCCC(=O)N(Cc1ccc(-c2ccccc2-c2nnn[nH]2)cc1)[C@H](C(=O)O)C(C)C [Valsartan] | 1.05 | 1.01
31 | COc1cc(Nc2ncc3c(n2)-c2ccc(Cl)cc2C(c2c(F)cccc2OC)=NC3)ccc1C(=O)O [Alisertib (MLN8237)] | 0.867 | 0.77
32 | COc1cccc(-c2cc(F)ccc2C2Cc3nc(N)nc(C)c3C(=O)N2)n1 (centres undefined) | 0.471 | 0.534
33 | O=c1cc(N2CCOCC2)oc2c(-c3ccccc3)cccc12 | 1.18 | 1.11
34 | Cc1cnc(NC(=O)Nc2cc(Br)c(C)cc2OC[C@@H]2CNCCO2)cn1 | 0.775 | 0.615
35 | Nc1cc(C(F)(F)F)c(-c2cc(N3CCOCC3)nc(N3CCOCC3)n2)cn1 [BKM120 (NVP-BKM120, Buparlisib)] | 0.487 | 0.247
36 | Cc1c(C(=O)Nc2ccc(N3C[C@@H](C)O[C@@H](C)C3)nc2)cccc1-c1ccc(OC(F)(F)F)cc1 [LDE225 (NVP-LDE225,Erismodegib)] | 1.06 | 0.917
37 | Cc1ccc(Sc2cncc3sc(C(N)=O)cc23)cc1 | 1.04 | 0.928
38 | O=C(O)c1ccccc1Nc1cccc(C(F)(F)F)c1 [Flufenamic acid] | 0.889 | 0.909
39 | Clc1ccc(C(c2ccccc2Cl)C(Cl)Cl)cc1 (centres undefined) [Mitotane] | 0.942 | 0.979
40 | O=C1O[C@H]([C@@H](O)CO)C(O)=C1O [Vitamin C] | 0.931 | 0.966
41 | Cc1cccc(C)c1OCC(=O)N[C@@H](Cc1ccccc1)[C@@H](O)C[C@H](Cc1ccccc1)NC(=O)[C@H](C(C)C)N1CCCNC1=O [Lopinavir] | 1.13 | 1.01
42 | CCCCN1CCCC[C@H]1C(=O)Nc1c(C)cccc1C [Levobupivacaine HCl] | 1.06 | 0.949
43 | CCCc1cc2c(N3CCN(C4=NCC(C)(C)S4)CC3)ncnc2s1 [MI-2 (Menin-MLL Inhibitor)] | 0.828 | 0.711
44 | CNCc1ccc(C)c(NC(=O)c2ccc(Nc3nc(-c4ccccc4)c4ccccc4n3)cc2)c1 | 1.13 | 0.134
45 | Nc1ccc(C(=O)O)c(O)c1 [Sodium 4-Aminosalicylate] | 0.937 | 0.914
46 | COc1cc(CCc2cc(NC(=O)c3ccc(N4CC(C)NC(C)C4)cc3)n[nH]2)cc(OC)c1 (centres undefined) | 1.3 | 0.804
47 | Cc1[nH]nc2ccc(-c3cncc(OC[C@@H](N)Cc4ccccc4)c3)cc12 | 0.484 | 0.252
